Reference: PubChem BioAssay AID1956 (SRMLSC, 2009)
The other results are listed elsewhere or left out. Further columns of the screen follow, without active or inactive calls.

Assay: enhancers of HSV replication in host cells, fold increase, host cell viability (AID 1956); note: tested in PC3 cells
Details: HSV replication augmentation in cells; fold increase: measured here: primary screen fold increase 10 uM, at 10 µM, stronger effect = higher value; viability: measured here: host cell viability series, at 25 µM, stronger effect = lower value

Row | SMILES | fold increase | viability
1 | COc1ccc(C2c3ccc(O)cc3Oc3ncn(Cc4ccco4)c(=N)c32)cc1 (stereo unspecified) | 1.35 | 93.2%
2 | Cc1nn(-c2ccccc2)c2[nH]c(=O)c(CNc3ccc(N4CCOCC4)cc3)cc12 | 1.28 | –
3 | COC(=O)c1ccc[n+](CCc2c[nH]c3ccccc23)c1 | 1.98 | 90.7%
4 | O=C1Nc2ccccc2Oc2cc([N+](=O)[O-])cc(Oc3ccccc3)c21 | 1.68 | 76.8%
5 | CCOC(=O)c1cn2nc(Oc3ccccc3)ccc2n1 | 1.38 | 105%
6 | O=C(O)c1ccccc1C(=O)Nc1ccc(-n2ccc(C(F)(F)F)n2)cc1 | 1.37 | 103%
7 | CCOc1[nH]n(-c2ccc(Cl)cc2)c(=O)c1C=Nc1ccc(OC)cc1 | 1.32 | –
8 | O=[N+]([O-])c1ccc(Sc2cccc[n+]2[O-])c2nonc12 | 4.26 | –
9 | O=C(N=c1ccn(-c2nc3ccccc3nc2NS(=O)(=O)c2ccc(Cl)cc2)cc1)c1ccccc1Cl | 1.41 | 103%
10 | COc1cc(/C=C2\SC(=S)N(c3cccnc3)C2=O)ccc1O | 7.21 | 92.3%
11 | COC(=O)c1c(C)[nH]c(O)c1C=Nc1ccc(Oc2ccccc2)cc1 | 1.68 | –
12 | COc1ccc(S(=O)(=O)c2c(N)n(Cc3ccco3)c3nc4ccccc4nc23)cc1 | 2.32 | 90%
13 | CN(Cc1ccon1)Cc1cn(C)nc1-c1ccc2c(c1)OCCO2 | 1.41 | 92%
14 | COc1ccc2nc(N3CCCCC3)c(/C=C3\SC(=S)NC3=O)cc2c1 | 1.53 | –
15 | Cc1ccc(CC2S/C(=C(/C#N)C(=O)NCc3ccco3)N(c3ccccc3)C2=O)cc1 (stereo unspecified) | 1.42 | 92.4%
16 | CSc1cccc(NC(N)=S)c1 | 1.36 | 89.3%
17 | COc1cc(/C=C(\C#N)C(=O)NCCc2ccccc2)cc(OC)c1O | 2.73 | 95.6%
18 | COC(=O)N/N=C/c1cccc(OC(=O)c2ccc3c(c2)OCO3)c1 | 2.07 | 101%
19 | CCc1ccc(OCCNC(=O)c2ccc(S(=O)(=O)N(C)C)cc2)cc1 | 1.49 | 97%
20 | O=C(O)Cc1sc(N/N=C\c2ccccc2)nc1-c1ccccc1 | 1.49 | 101%
21 | CC1=CSC2=NC(C(F)(F)F)(C(F)(F)F)NC(=O)N12 | 1.32 | –
22 | CCOc1cc(Br)c(/C=C2/C(=O)N(C)C(=S)N2CC(=O)OC)cc1OC | 1.75 | 87.8%
23 | CC1=Nc2ccccc2/C1=C/c1sc(=N)n(-c2nccs2)c1O | 2.84 | 67.6%
24 | Cc1cc(C)nc(N/N=C/c2cn[nH]c2-c2ccccc2)n1 | 1.34 | 96.5%

Row | SMILES | fold increase | viability
25 | CCOC(=O)c1sc2nc(CC(=O)OC)nc(NCc3ccco3)c2c1C | 2.03 | 90.3%
26 | Cc1ccc(-n2c(SCC(=O)Nc3ccc4c(c3)OCO4)nnc2-c2cccs2)cc1 | 1.02 | –
27 | Fc1cccc(-n2c(-c3ccco3)nc3nc4ccccc4nc32)c1 | 2.26 | 100%
28 | CC(C)OC(=O)CC(=O)c1sc2nc3c(cc2c1N)CN(C)CC3 | 1.74 | 90.7%
29 | CCOc1c(CNCCN2CCOCC2)cccc1OC | 1.32 | –
30 | CCOc1ccc(CN2CCN(Cc3nc(C(C)C)cs3)CC2CCO)cc1 (stereo unspecified) | 1.34 | 93.4%
31 | CC1=CC2=NC(=O)/C(=C/c3coc4ccc(Cl)cc4c3=O)C(=N)N2O1 | 1.99 | 97.2%
32 | CNC(=S)NNC(=O)c1ccc(=O)n(Cc2ccc(Cl)cc2Cl)c1 | 1.45 | 76.5%
33 | Cn1c(=O)c(C(=O)CN2CCCCCC2)c(N)n(Cc2ccccc2)c1=O | 1.58 | 92.3%
34 | Fc1ccc(Br)cc1C1C=C(c2ccc(Br)s2)Nc2ncnn21 (stereo unspecified) | 1.95 | –
35 | COc1ccc(S(=O)(=O)N2CN(CCc3ccc(OC)c(OC)c3)c3nc4ccccc4nc32)cc1 | 1.34 | 95.9%
36 | Brc1ccc(C2=CC(c3ccco3)n3ncnc3N2)cc1 (stereo unspecified) | 1.69 | –
37 | O=C(CSc1nnc(-c2cccnc2)n1C1CCCCC1)NC1CCCC1 | 1.35 | 100%
38 | O=C(Cc1nc2ccccc2[nH]c1=O)c1ccc(Cl)cc1 | 2.33 | 90.7%
39 | O=C1CC(N2CCN(Cc3ccccc3)CC2)C(=O)N1CCc1ccccc1 (stereo unspecified) | 1.36 | 93.8%
40 | COC(=O)C(C(C)=O)C1=C/C(=N\S(=O)(=O)c2ccc(C)cc2)c2ccccc2C1=O (stereo unspecified) | 1.99 | 89.7%
41 | O=C1c2cccc3c(N4CCCCC4)ccc(c23)C(=O)N1CCO | 3.27 | 81.8%
42 | Clc1ccc(C2=CC(c3ccco3)n3ncnc3N2)cc1 (stereo unspecified) | 1.07 | 92.5%
43 | O=C(C1=NN(c2ccccc2)C2C(=O)N(c3ccccc3Cl)C(=O)C12)c1ccccc1 (stereo unspecified) | 5.23 | 95.1%
44 | O=C(Nc1ccc(F)cc1)N1CCn2c(nc3ccccc32)C1 | 1.37 | 92%
45 | N#CC(C#N)=C1C=CC=CN1/C(=C\c1ccccc1)C(=O)c1cccs1 | 1.38 | 92.8%
46 | N#C/C(=C\c1ccccc1[N+](=O)[O-])C(=O)NC1CCCCC1 | 1.52 | 64.7%
47 | Cc1nnc(SCc2cc([N+](=O)[O-])cc3c2OCOC3)n(N)c1=O | 1.34 | 84.7%
48 | CC1(C)CC(=O)C(C=Nc2cc(C(=O)c3ccccc3)ccc2N)=C(O)C1 | 2.06 | 89.9%

Row | SMILES | fold increase | viability
49 | Cn1/c(=N/N=C/c2ccc([N+](=O)[O-])cc2)sc2ccccc21 | 1.43 | –
50 | O=C1c2cccc3c([N+](=O)[O-])ccc(c23)C(=O)N1CCc1ccccn1 | 3.76 | 52.8%
51 | CN1CC=C2C(C#N)=C(N)C(C#N)(C#N)C(c3ccsc3)C2C1 (stereo unspecified) | 1.46 | 86.9%
52 | Cc1ccc(-c2cc(C(=O)N/N=C/c3c(C)nn(C)c3C)c3ccccc3n2)cc1C | 1.23 | –
53 | COc1cccc2c1C(=O)c1c(O)c3c(c(O)c1C2=O)C[C@@](O)(C(=O)CO)C[C@@H]3O[C@H]1C[C@H](N)[C@@H](O)[C@H](C)O1 | 3.18 | 34%
54 | CC1SCC(NC(=O)c2ccccc2Cl)CS1 (stereo unspecified) | 1.37 | 102%
55 | CCCCOC(=S)NC(=O)c1sc2ccccc2c1Cl | 1.47 | 99.9%
56 | COc1cccc(N2C(=O)C3NN=C(C(=O)CN4C(=O)c5ccccc5C4=O)C3C2=O)c1 (stereo unspecified) | 1.33 | 99.1%
57 | COc1cc(C=C2C(=O)c3ccccc3C2=O)cc(OC)c1 | 1.71 | 104%
58 | COc1cccc(CNC(=O)CCC2CCCN(C(=O)C3=CC(=O)CC(C)(C)O3)C2)c1 (stereo unspecified) | 1.35 | 96%
59 | CN1CCN(CC(=O)Nc2c(C#N)cnn2-c2ccccc2)CC1 | 1.44 | 99%
60 | Cc1nc2ccc(Br)cn2c1NC(C)(C)C | 1.34 | 92.7%
61 | CC1CC1c1ccc(/C=C(\C#N)C(=O)Nc2cc(Cl)ccc2Cl)o1 (stereo unspecified) | 2.08 | 109%
62 | COc1ccc2c(c1)CC/C(=C\c1ccc(C)o1)C2=O | 1.34 | 98%
63 | CC(C)(C)c1ccc(S(=O)(=O)C(C)(C)C)cc1 | 1.4 | 90%
64 | COc1cc2c3nnc(-c4ccc(F)cc4)c-3cn(Cc3ccccc3F)c2cc1OC | 2.65 | –
65 | Cc1[nH]n(-c2ccccc2)c(=O)c1N=Nc1ccccc1O | 1.72 | 8.46%
66 | O=C(O)c1cn(-c2ccc(N3CCCC3)c(F)c2)c2c(F)c(F)c(F)cc2c1=O | 1.39 | –
67 | Cc1cc(Cl)ccc1OCC(=O)N1CCCCC1 | 1.08 | 105%
68 | CCOc1ccc2c(c1)C(c1ccc(C)cc1)=NNC(c1ccc(C)cc1)=N2 | 1.1 | –
69 | COc1ccc(/C=C(/C(=O)c2cccs2)N2C=CC=CC2=C(C#N)C#N)cc1 | 1.89 | 95.6%
70 | Cc1ccc2[nH]c(=O)c(CN(Cc3cccs3)Cc3nnnn3Cc3ccccc3)cc2c1 | 1.38 | 92%
71 | N#C/C(=C/c1ccc(N2CCOCC2)o1)c1nc2ccccc2[nH]1 | 7.65 | 84.4%
72 | CCCCCCN1C=C/C(=C\C=C(C#N)C#N)c2ccccc21 | 2.26 | 87.9%

Row | SMILES | fold increase | viability
73 | O=C(N/N=C\c1c(O)ccc2ccccc12)c1ccc(Cn2cccn2)o1 | 1.38 | –
74 | CCN(CC)c1nc2c3c(nc4c(c3c1C#N)CC(=O)N4c1ccc(Cl)cc1)NC(C)=N2 | 1.38 | –
75 | Cc1ccc2[nH]c(C(=O)O)c(NC(=O)[C@@H]3C[C@@H]3c3ccccc3)c2c1 | 1.39 | 98.9%
76 | CCCCCCN1C=CC=C/C1=C\C=C(C#N)C#N | 2.68 | 89.2%
77 | COc1ccc(Br)cc1S(=O)(=O)N1CCOCC1 | 1.32 | 107%
78 | CC(=O)CC1(C)OC(N)=C(C#N)C1(C#N)C#N (stereo unspecified) | 1.38 | 94.9%
79 | COc1ccc(CNC(=O)CSCc2cnn(-c3ccccc3)c2-n2cccc2)cc1 | 1.41 | 103%
80 | CCOC(=O)Cc1csc(N/C(=N/S(=O)(=O)c2ccc(F)cc2F)c2ccccc2)n1 | 1.35 | 103%
81 | Cc1noc(C)c1C(=O)Nc1sc(C)c(C)c1C#N | 2.28 | 92.6%
82 | CCOC(=O)C1=C(O)c2ccccc2C(=O)/C1=C\c1ccc(C)cc1 | 1.35 | 95.6%
83 | Cc1ccc(C(=O)CSC2=C(C#N)C(c3ccco3)C3=C(CC(C)(C)CC3=O)N2)cc1 (stereo unspecified) | 1.2 | –
84 | COc1ccccc1N/C=C/c1onc(C)c1[N+](=O)[O-] | 1.67 | 62%
85 | Cn1cccc1/C=C1\SC(=S)N(Nc2ccccc2)C1=O | 1.35 | 96.7%
86 | O=C(Nc1cccc(-c2nnc(-c3ccco3)o2)c1)C(c1ccccc1)c1ccccc1 | 0.993 | –
87 | CCCCC(=O)NC(=S)NNC(=O)CC | 2.2 | –
88 | CCCCOC(=O)N1CCOCCOCCOCCOCC1 | 1.48 | 94%
89 | Cc1ccc(-n2nc3cc(C)c(N)cc3n2)cc1 | 1.05 | –
90 | Cc1ccc(SCC(=O)Nc2ccc(-c3nnc(-c4ccco4)o3)cc2)cc1 | 1.14 | –
91 | CC(C)=C1C(=O)NN(c2ccc(F)c(Cl)c2)C1=O | 1.46 | 102%
92 | CC1=CC(=O)C(C(C)C)=C/C1=N\OC(=O)c1cccc2nc(C)oc12 | 1.4 | –
93 | Cc1cccc(C)c1NC(=O)COC(=O)c1c2c(nc3ccccc13)/C(=C\c1ccc3c(c1)OCO3)CCC2 | 6.57 | –
94 | O=C(CCSc1nnc2scc(-c3ccccc3)n12)NCc1ccc2c(c1)OCO2 | 1.32 | 97.3%
95 | C=CCN(CC=C)C(=O)C(=O)c1ccn(-c2c(C)csc2C(=O)OC)c1 | 1.35 | 99%
